Source: PubChem BioAssay AID686979 (National Center for Advancing Translational Sciences (NCATS), 2013)
Screen size: about 420,000 compounds; about 50,000 (12%) were called active. Inconclusive means that the source gave no clear call. Such entries were picked first, then a sample of the others. Calls follow the shape of the dose curve; as a rule, active = well fitted inhibition curve with a large enough effect; inconclusive = small, poorly fitted or top-dose-only effect; inactive = flat fitted curve, though single readings scatter. No potency is given beside an inconclusive call; the fits are too rough.

Experiment: qHTS for Inhibitors of human tyrosyl-DNA phosphodiesterase 1 (TDP1): qHTS in cells in presence of CPT; also: nearly all actives have a fitted effect of over 55% in size
Details: chicken DT40 Tdp1-/-;hTDP1 cells + 20 nM CPT, ATP luminescence, 48 h; activity change, negative = growth inhibition: at 46.2 µM (top of the series) unless noted
Procedure, shortened: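 Chicken DT40 Tdp1-/- cells stably complemented with human TDP1 were seeded at 400 cells/well in medium containing 20 nM camptothecin, exposed to pin-transferred compounds, and grown at 37 °C for at least 48 hr. Viability was read as ATP luminescence.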
% is scaled to controls: 0 for no effect and ±100 for the full control effect; potency is read from the fitted curve at half-maximal effect; tags tell the direction and shape of the fitted curve.

SMILES | Potency | activity change, negative = growth inhibition
CCc1cccc(-n2c(=O)c3cccnc3n2CC(=O)NCc2ccc(C)cc2)c1 | inconclusive [inhibitor, single point] | –
Cc1ccc(S(=O)(=O)C(C#N)c2nc3ccccc3nc2N2CCCC2)cc1C (stereo unspecified) | inconclusive [inhibitor, single point] | –
CN(C)N1C(=O)CC(C)(c2ccc([N+](=O)[O-])cc2)C1=O (stereo unspecified) | – | inactive: -11.3%
CC1CCCCN1C(=O)COC(=O)c1ccc2ccccc2n1 (stereo unspecified) | – | inactive: -0.762%
COc1ccc(/C=N/Nc2nc(Nc3ccccc3)nc(N3CCCCC3)n2)cc1OC | inconclusive [inhibitor, single point] | –
COc1ccc2sc(-c3ccc(N(C)C)cc3)c(C#CCCO)c2c1 | inconclusive [inhibitor, single point] | –
CC(C)c1ccc(OCc2ccc(C(=O)N3CCN(c4ccccn4)CC3)cc2)cc1 | inconclusive [inhibitor, single point] | –
CCC(C)NC(=O)c1cn(C)c(=O)c2cc(OC)c(OC)cc12 (stereo unspecified) | – | inconclusive: -35.4% [inhibitor]
O=C(CN1C(=O)CCSc2ccccc21)Nc1ccc2c(c1)OCCO2 | inconclusive [inhibitor, single point] | –
Cc1cccc(NC(=O)C2CCN(S(=O)(=O)c3ccc4c(c3)OCCCO4)CC2)n1 | inconclusive [inhibitor, single point] | –
C=CCn1c(SCC(=O)Nc2cc3oc4ccccc4c3cc2OC)nnc1-c1cnccn1 | inconclusive [inhibitor, single point] | –
O=C(Nc1ccc2c(c1)OCCO2)c1[nH]c(C(F)(F)F)nc1-c1ccccc1 | inconclusive [inhibitor, single point] | –
C[C@@H]1CN([C@@H](C)CO)C(=O)c2ccccc2-c2ccccc2CO[C@@H]1CN(C)S(=O)(=O)c1ccc(C(F)(F)F)cc1 | inconclusive [inhibitor, single point] | –
COc1ccccc1C1CC(=O)NC(C)=C1C(=O)OCC(C)C (stereo unspecified) | active: 11.6 µM | –
C#CCSc1nnc(-c2sc(-c3ccccc3)nc2C)n1C | inconclusive [inhibitor, partial curve] | –
CN1C(=O)/C(=C/c2ccccc2Cl)Sc2ccc(C(=O)NCc3cccnc3)cc21 | inconclusive [inhibitor, single point] | –
CC(=O)Nc1cccc(C(=O)Nc2ccccc2N2CCOCC2)c1 | inconclusive [inhibitor, single point] | –
Cc1ccc(CNC(=O)C2CC3Cn4c(nc5cc6ccccc6cc54)C3N2C)o1 (stereo unspecified) | active: 18.4 µM | –
CCCC(=O)N(c1ccc2oc(=O)sc2c1)S(=O)(=O)c1cccs1 | inconclusive [inhibitor, single point] | –
CSc1cccc(NC(=S)N(CCCN2CCCC2)Cc2cccs2)c1 | inconclusive [inhibitor, single point] | –
COc1ccc(-c2nc3ccc([N+](=O)[O-])cc3o2)cc1 | – | inactive: -16.6%

SMILES | Potency | activity change, negative = growth inhibition
COc1ccc2cc(CN(CCCN3CCOCC3)Cc3nnnn3C3CCCC3)c(=O)[nH]c2c1 | inconclusive [inhibitor, single point] | –
CCc1nc2ccc(C(=O)NCC3CCCCC3)cn2c1N(C)Cc1ccc(OC)cc1 | inconclusive [inhibitor, single point] | –
Cc1noc(C)c1C(=O)N(C)C[C@@H]1OCc2ccccc2-c2c(n(C)c3ccccc23)C(=O)N([C@H](C)CO)C[C@H]1C | inconclusive [inhibitor, partial curve] | –
O=C(Nc1ccn(Cc2ccc(Cl)cc2)n1)c1ccc2c(c1)OCO2 | – | inactive: -21.9%
O=C(Nc1nc2ccc(F)cc2s1)c1nc(S(=O)(=O)Cc2ccccc2F)ncc1Cl | active: 3.26 µM | –
Cc1ccc(Sc2nc(C)c([N+](=O)[O-])c(C)c2C#N)cc1 | inconclusive [inhibitor, partial curve, poor fit] | –
O=C(Nc1ccc2c(c1)C(=O)NC2=O)c1ccc(S(=O)(=O)N2CCCC2)cc1 | – | inactive: -14%
CC1CCc2c(sc3ncn4c(SCC(=O)NCc5ccco5)nnc4c23)C1 (stereo unspecified) | inconclusive [inhibitor, single point] | –
O=C(CSc1cn(CCNC(=O)c2cccc(C(F)(F)F)c2)c2ccccc12)Nc1ccc2c(c1)OCCO2 | active: 23.1 µM | –
C=CCNC(=S)N/N=C(\C)c1cccc(OC)c1 | active: 1.16 µM | –
O=c1c2ccccc2ncn1CCCOc1ccccc1[N+](=O)[O-] | inconclusive [inhibitor, single point] | –
CC1CN(C(=O)c2cccc(S(=O)(=O)N3CCN(c4ccccc4)CC3)c2)CC(C)O1 (stereo unspecified) | active: 14.6 µM | –
COC(=O)Cn1c(=NC(=O)CCS(=O)(=O)c2ccccc2)sc2c(OC)ccc(OC)c21 | active: 20.6 µM | –
CC(C)(C)c1ccc2c(c1)N(CC(=O)NCCCN1CCN(c3ccccc3F)CC1)C(=O)CO2 | inconclusive [inhibitor, single point] | –
COc1cccc(NC(=O)C2(C)CCN2C(=O)CCC2CCCC2)c1 (stereo unspecified) | inconclusive [inhibitor, single point] | –
CCCCC1=NN(C(=O)c2cocc2C)C(O)(C(F)(F)F)C1 (stereo unspecified) | inconclusive [inhibitor, single point] | –
C[C@H]1CN([C@@H](C)CO)C(=O)CCCn2nncc2CO[C@H]1CN(C)C(=O)CCC(F)(F)F | – | inactive: -0.937%
CSc1ncc(C(=O)NCc2ccc(C)cc2)c(C)n1 | inconclusive [inhibitor, single point] | –
COc1ccccc1CNC(=O)C[C@@H]1C[C@H]2c3cc(NC(=O)c4ccc5c(c4)OCO5)ccc3O[C@H]2[C@@H](CO)O1 | inconclusive [inhibitor, partial curve, poor fit] | –
CCCCCn1c(CN2CCN(Cc3ccccc3)CC2)nc2c1c(=O)[nH]c(=O)n2C | inconclusive [inhibitor, single point] | –
